{"source": "ChEMBL document CHEMBL4888484", "about": "“Replenishing the malaria drug discovery pipeline: Screening and hit evaluation of the MMV Hit Generation Library 1 (HGL1) against asexual blood stage Plasmodium falciparum ,using a nano luciferase reporter read-out” (2022)", "note": "Out of some 150,000 compounds screened, about 540 (0.36%) showed an effect of 50% or more. The list shows a part of the results."}
{"system": "Plasmodium falciparum", "test": "Primary screen in NF54 nanoGlo assay, in single point, at 2uM, 72h; a lower Z score goes with more inhibition", "format": "functional, Erythrocyte", "settings": "timepoint 72 hour", "units": {"% Inhibition": "%"}}
{"smiles": "Cc1cc2ncc(C(C)N[C@@H](C)C(=O)N3CCCCC3)c(C)n2n1", "note": "(stereo partly drawn)", "% Inhibition": -16, "Z score": 1.58}
{"smiles": "CCOCC1CCN(C(=O)C2C3CCCC32)C1", "note": "(stereo not drawn)", "% Inhibition": -11, "Z score": 1.38}
{"smiles": "O=S(=O)(c1ccccc1Cl)N1CCN(c2nc3nccc(-c4cccc(C(F)(F)F)c4)n3n2)CC1", "% Inhibition": -2, "Z score": 0.29}
{"smiles": "CN(C(=O)C1CC1c1ccccc1C(F)(F)F)c1ccc(C(N)=O)cc1", "note": "(stereo not drawn)", "% Inhibition": -2, "Z score": 0.19}
{"smiles": "COCc1ncc(-c2noc(C(=O)Nc3ccccc3)n2)c(N)n1", "% Inhibition": -18, "Z score": 2.97}
{"smiles": "CN(Cc1nccs1)C(=O)N[C@H](c1ccccc1F)C1CCCC1", "% Inhibition": -9, "Z score": 1.03}
{"smiles": "COCC1(C2CCC2)CN(C(=O)NCCC2CCS(=O)(=O)CC2)C1", "% Inhibition": -11, "Z score": 2.09}
{"smiles": "Cn1cc(C(=O)N2CCc3ccccc3C2)c2ccccc21", "% Inhibition": 7, "Z score": -0.83}
{"smiles": "C[C@H](OC(=O)c1cc(Cl)c[nH]1)C(=O)Nc1ccc(S(=O)(=O)N2CCOCC2)cc1", "% Inhibition": -13, "Z score": 2.5}
{"smiles": "O=C1CN(C(=O)NC2CCCCC2)CCN1", "% Inhibition": -7, "Z score": 1.04}
{"smiles": "FC(F)(F)C1=Nc2ccccc2N(c2ccc(Cl)c(Cl)c2)C1", "% Inhibition": 4, "Z score": -0.48}
{"smiles": "Cc1nc([C@H](C)NCc2cc3c(cc2Cl)OCO3)n[nH]1", "% Inhibition": -3, "Z score": 0.51}
{"smiles": "COc1cc2nc(C(=O)NC3CCCCCC3)c(=O)n(C)c2cc1OC", "% Inhibition": -16, "Z score": 1.98}
{"smiles": "O=C1NCCCc2[nH]c(-c3ccccc3-n3ccnc3)nc21", "% Inhibition": -8, "Z score": 0.88}
{"smiles": "COc1cc(Cl)ccc1Oc1ncnc2oc(C)c(C)c12", "% Inhibition": -2, "Z score": 0.26}
{"smiles": "Cc1cc(O)n2nc(CC(=O)N[C@H]3CCCN(Cc4ccccn4)C3)nc2n1", "% Inhibition": -11, "Z score": 1.67}
{"smiles": "CN(C)C1CN(C(=O)c2ncsc2-c2ccccc2)C1", "% Inhibition": -1, "Z score": 0.07}
{"smiles": "COc1ccc(CN2C(=O)N[C@@H](CC(=O)NC3CCCCC3)C2=O)cc1", "% Inhibition": -16, "Z score": 2.03}
{"smiles": "COc1cccc([C@H]2C[C@@H]2C(=O)N2CCC(O)C(C)(C)C2)c1", "note": "(stereo partly drawn)", "% Inhibition": -4, "Z score": 0.63}
{"smiles": "O=C(N[C@H](c1ccccc1)C1CC1)C1CCCCC1", "% Inhibition": -8, "Z score": 0.91}
{"smiles": "Cc1ccc([C@H]2CN(C(=O)c3ccccc3-c3nnn[nH]3)C[C@@H]2N(C)C)cc1", "% Inhibition": 4, "Z score": -0.64}
{"smiles": "CC[C@H](C)N(C)CCNc1ncc(C(=O)N2CCOCC2)cc1Cl", "% Inhibition": 3, "Z score": -0.32}
{"smiles": "COC1CCCC(CC(=O)N2CCCCC2c2nc3ccccc3o2)C1", "note": "(stereo not drawn)", "% Inhibition": -5, "Z score": 0.67}
{"smiles": "O=C(Nc1cc(Cl)ccc1Cl)c1nn2c(c1Cl)N[C@@H](c1cccs1)C[C@H]2C(F)(F)F", "% Inhibition": 0, "Z score": 0.03}
{"smiles": "O=S1(=O)C[C@@H]2[C@H](C1)N(Cc1ccccc1)CCN2Cc1cncs1", "% Inhibition": 8, "Z score": -1.07}
{"smiles": "CCC(O)(CC)CNC(=O)c1ccc(OC)c(OC(F)F)c1", "% Inhibition": -4, "Z score": 0.66}
{"smiles": "CCc1ccc(CNC(=O)c2ccc3c(c2)nc2n3CC[C@H](C)C2)cc1", "% Inhibition": -5, "Z score": 0.76}
{"smiles": "Cc1nc(-c2ccccc2)c(C(=O)N2CCOC[C@@H]2CC(N)=O)s1", "% Inhibition": -13, "Z score": 1.68}
{"smiles": "CN(C)c1ccncc1NS(=O)(=O)c1ccccc1", "% Inhibition": 4, "Z score": -0.76}
{"smiles": "CCOc1ccc(-c2c[nH]c(-c3ccc(S(=O)(=O)NC)cc3)n2)cc1", "% Inhibition": 3, "Z score": -0.56}
{"smiles": "Cc1ccc(C)c(N2CCN(C(=O)c3ccc4c(c3)N(Cc3ccccc3)C(=O)CO4)CC2)c1", "% Inhibition": -13, "Z score": 1.76}
{"smiles": "CN(CC(=O)N1CCCC1)c1ccc(F)cc1", "% Inhibition": -1, "Z score": 0.17}
{"smiles": "CC(C)(C)OC(=O)Nc1c(F)cccc1Br", "% Inhibition": 4, "Z score": -0.49}
{"smiles": "Cc1nnc(CNC(=O)CN2CCN(Cc3ccccc3)CC2)o1", "% Inhibition": 8, "Z score": -1.37}
{"smiles": "C[C@@H](CCn1cncn1)NS(=O)(=O)c1cncc(Cl)c1", "% Inhibition": -4, "Z score": 0.56}
{"smiles": "O=C(NCC(=O)N1CC[C@H](Nc2ncccn2)[C@@H](O)C1)c1ccccc1", "% Inhibition": -1, "Z score": 0.3}
{"smiles": "O=C1CCC2(CCN(C(=O)c3ccc(O)cc3)CC2)CN1CCc1ccccc1", "% Inhibition": -4, "Z score": 0.73}
{"smiles": "O=C(c1ncncc1Cl)N1CC2CCCCC2C1", "note": "(stereo not drawn)", "% Inhibition": -5, "Z score": 0.76}
{"smiles": "C[C@@H](Cc1ccco1)NC(=O)NCc1ccco1", "% Inhibition": -9, "Z score": 1.19}
{"smiles": "Cc1n[nH]c(CC(=O)N2CCC[C@]3(CCC(=O)N(C4CCCC4)C3)C2)n1", "% Inhibition": -18, "Z score": 2.38}
{"smiles": "C[C@]1(C(=O)Nc2ccc(-n3ccc(=O)[nH]3)c(F)c2)CCNC(=O)C1", "% Inhibition": -4, "Z score": 0.56}
{"smiles": "Cc1csc(NS(=O)(=O)c2cccc(N(C)C)c2)n1", "% Inhibition": -12, "Z score": 1.21}
{"smiles": "CC(C)N(CC(=O)N(Cc1ccc(F)cc1)Cc1cccs1)C(=O)Cc1cccs1", "% Inhibition": -13, "Z score": 1.18}
{"smiles": "Cc1cc(C)cc(-n2cc(C(=O)N3CCc4ccccc4C3)nn2)c1", "% Inhibition": 29, "Z score": -3.29}
{"smiles": "O[C@H]1CN(C2CCN(c3ccccc3Cl)CC2)C[C@@H]1F", "% Inhibition": -1, "Z score": 0.14}
{"smiles": "COc1cccc(CNC(=O)C[C@H]2COc3ccccc3NC2=O)c1", "% Inhibition": -3, "Z score": 0.47}
{"smiles": "COCCOc1ncccc1C(=O)Nc1ccnc2ccnn12", "% Inhibition": -12, "Z score": 1.82}
{"smiles": "COc1cc(-c2noc(C3CCCC3)n2)ccc1OCc1ccc(F)cc1F", "% Inhibition": -11, "Z score": 1.32}
{"smiles": "O=C(Nc1ccc2c(c1)cc(C(=O)NCc1ccccc1)n2Cc1cccc(F)c1)c1ccccc1F", "% Inhibition": -2, "Z score": 0.24}
{"smiles": "COC(=O)N1CCC[C@H]1C(=O)OCc1nnnn1-c1ccccc1", "% Inhibition": -5, "Z score": 0.75}
{"smiles": "Cc1ccc([C@H](CNC(=O)c2cc(-c3ccc(C)c(C)c3)on2)N2CCOCC2)cc1", "% Inhibition": 7, "Z score": -0.9}
{"smiles": "Cn1nc(C(=O)N2CCCCC3CCCCC32)cc1OC(F)F", "note": "(stereo not drawn)", "% Inhibition": -9, "Z score": 1.21}
{"smiles": "Cc1cc(C(=O)Nc2ccc3[nH]ncc3c2)cs1", "% Inhibition": -14, "Z score": 1.48}
{"smiles": "C[C@H]1CCCN(S(=O)(=O)NCc2ccnc(N3CCN(c4ccc(F)cc4)CC3)c2)C1", "% Inhibition": -7, "Z score": 1.08}
